# Laboratory results taken from the supplement of paper PMC8728848.
# The other results are listed elsewhere or left out.
# Columns and labels:
# Assay in all cases: glycan array binding signal (z-score within array); higher = stronger binding
# Conditions in all cases: glycan notation: IUPAC condensed, linker removed
# [1] = target: Fuc(a1-2)[GalNAc(a1-3)]Gal(b1-4)GlcNAc
# Procedure, shortened: (§1)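 Arrays were curated from the Consortium for Functional Glycomics database, 3228 in total, and kept only where the protein sequence was available. Binding is expressed as a within-array Z-score. This score was averaged across arrays of the same protein sequence at different concentrations or buffers and across linkers, and negative values can be read as non-binding.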
# [2] = target: Fuc(a1-2)[GalNAc(a1-3)]Gal(b1-4)[Fuc(a1-3)]GlcNAc
# Procedure, shortened: as §1
# [3] = target: Fuc(a1-2)[GalNAc(a1-4)]Gal(b1-4)GlcNAc
# Procedure, shortened: as §1
# [4] = target: Fuc(a1-2)[GalNAc(b1-3)]Gal
# Procedure, shortened: as §1
# [5] = target: Fuc(a1-3)GlcNAc
# Procedure, shortened: as §1
# [6] = target: Fuc(a1-3)[Gal(b1-4)]Glc6S
# Procedure, shortened: as §1
# [7] = target: Fuc(a1-3)[Gal(b1-4)]GlcNAc
# Procedure, shortened: as §1
# [8] = target: Fuc(a1-3)[Gal(b1-4)]GlcNAc(b1-2)Man(a1-3)[Fuc(a1-3)[Gal(b1-4)]GlcNAc(b1-2)Man(a1-6)]Man(b1-4)GlcNAc(b1-4)GlcNAc
# Procedure, shortened: as §1
# [9] = target: Fuc(a1-3)[Gal(b1-4)]GlcNAc(b1-2)Man(a1-6)[Gal(b1-4)GlcNAc(b1-2)Man(a1-3)]Man(b1-4)GlcNAc(b1-4)GlcNAc
# Procedure, shortened: as §1
# [10] = target: Fuc(a1-3)[Gal(b1-4)]GlcNAc(b1-3)Gal(b1-3)[Fuc(a1-4)]GlcNAc
# Procedure, shortened: as §1
# [11] = target: Fuc(a1-3)[Gal(b1-4)]GlcNAc(b1-4)Gal(b1-4)[Fuc(a1-3)]GlcNAc
# Procedure, shortened: as §1
# [12] = target: Fuc(a1-3)[Gal(b1-4)]GlcNAc(b1-4)Gal(b1-4)[Fuc(a1-3)]GlcNAc(b1-4)Gal(b1-4)[Fuc(a1-3)]GlcNAc
# Procedure, shortened: as §1
# [13] = target: Fuc(a1-3)[Gal(b1-4)]GlcNAc6S
# Procedure, shortened: as §1
# [14] = target: Fuc(a1-3)[Gal3S(b1-4)]Glc6S
# Procedure, shortened: as §1
# [15] = target: Fuc(a1-3)[Gal3S(b1-4)]GlcNAc
# Procedure, shortened: as §1
# [16] = target: Fuc(a1-3)[Gal3S(b1-4)]GlcNAc6S
# Procedure, shortened: as §1
# [17] = target: Fuc(a1-3)[GalNAc(b1-4)]GlcNAc
# Procedure, shortened: as §1
# [18] = target: Fuc(a1-4)GlcNAc
# Procedure, shortened: as §1
# [19] = target: Fuc(b1-3)GlcNAc
# Procedure, shortened: as §1
# [20] = target: Gal(a1-2)Gal
# Procedure, shortened: as §1
# [21] = target: Gal(a1-3)Gal
# Procedure, shortened: as §1
# [22] = target: Gal(a1-3)Gal(b1-3)GlcNAc
# Procedure, shortened: as §1
# [23] = target: Gal(a1-3)Gal(b1-4)Glc
# Procedure, shortened: as §1
# [24] = target: Gal(a1-3)Gal(b1-4)GlcNAc
# Procedure, shortened: as §1
# [25] = target: Gal(a1-3)Gal(b1-4)[Fuc(a1-3)]GlcNAc
# Procedure, shortened: as §1
# [26] = target: Gal(a1-3)GalNAc
# Procedure, shortened: as §1
# [27] = target: Gal(a1-3)[Gal(a1-4)]Gal(b1-4)GlcNAc
# Procedure, shortened: as §1
# [28] = target: Gal(a1-4)Gal(b1-4)Glc
# Procedure, shortened: as §1
# [29] = target: Gal(a1-4)Gal(b1-4)GlcNAc
# Procedure, shortened: as §1
# [30] = target: Gal(a1-4)GlcNAc
# Procedure, shortened: as §1
# [31] = target: Gal(a1-6)Glc
# Procedure, shortened: as §1
# [32] = target: Gal(b1-2)Gal
# Procedure, shortened: as §1
# [33] = target: Gal(b1-3)Gal
# Procedure, shortened: as §1
# [34] = target: Gal(b1-3)Gal(b1-4)GlcNAc
# Procedure, shortened: as §1
# [35] = target: Gal(b1-3)GalNAc
# Procedure, shortened: as §1
# [36] = target: Gal(b1-3)GalNAc(b1-3)Gal(a1-4)Gal(b1-4)Glc
# Procedure, shortened: as §1
# [37] = target: Gal(b1-3)GalNAc(b1-4)Gal(b1-4)Glc
# Procedure, shortened: as §1
# [38] = target: Gal(b1-3)GalNAc(b1-4)[Neu5Ac(a2-3)]Gal(b1-4)Glc
# Procedure, shortened: as §1
# [39] = target: Gal(b1-3)GlcNAc
# Procedure, shortened: as §1
# [40] = target: Gal(b1-3)GlcNAc(b1-2)Man(a1-3)[Gal(b1-3)GlcNAc(b1-2)Man(a1-6)]Man(b1-4)GlcNAc(b1-4)GlcNAc
# Procedure, shortened: as §1
# [41] = target: Gal(b1-3)GlcNAc(b1-3)Gal(b1-3)GlcNAc
# Procedure, shortened: as §1
# [42] = target: Gal(b1-3)GlcNAc(b1-3)Gal(b1-4)Glc
# Procedure, shortened: as §1
# [43] = target: Gal(b1-3)GlcNAc(b1-3)Gal(b1-4)GlcNAc
# Procedure, shortened: as §1
# [44] = target: Gal(b1-3)[Fuc(a1-4)]GlcNAc
# Procedure, shortened: as §1
# [45] = target: Gal(b1-3)[Fuc(a1-4)]GlcNAc(b1-3)Gal(b1-3)[Fuc(a1-4)]GlcNAc
# Procedure, shortened: as §1
# [46] = target: Gal(b1-3)[Fuc(a1-4)]GlcNAc(b1-3)Gal(b1-4)GlcNAc
# Procedure, shortened: as §1
# [47] = target: Gal(b1-3)[Fuc(a1-4)]GlcNAc(b1-3)Gal(b1-4)[Fuc(a1-3)]GlcNAc
# Procedure, shortened: as §1
# [48] = target: Gal(b1-3)[GlcNAc(b1-6)]GalNAc
# Procedure, shortened: as §1
# [49] = target: Gal(b1-3)[Neu5Ac(a2-6)]GalNAc
# Procedure, shortened: as §1
# [50] = target: Gal(b1-3)[Neu5Ac(a2-6)]GlcNAc(b1-6)Gal(b1-4)Glc
# Procedure, shortened: as §1
# [51] = target: Gal(b1-3)[Neu5Ac(b2-6)]GalNAc
# Procedure, shortened: as §1
# [52] = target: Gal(b1-4)GalNAc(a1-3)[Fuc(a1-2)]Gal(b1-4)GlcNAc
# Procedure, shortened: as §1
# [53] = target: Gal(b1-4)GalNAc(b1-3)[Fuc(a1-2)]Gal(b1-4)GlcNAc
# Procedure, shortened: as §1
# [54] = target: Gal(b1-4)Glc
# Procedure, shortened: as §1
# [55] = target: Gal(b1-4)Glc6S
# Procedure, shortened: as §1
# [56] = target: Gal(b1-4)GlcNAc
# Procedure, shortened: as §1
# [57] = target: Gal(b1-4)GlcNAc(a1-6)Gal(b1-4)GlcNAc
# Procedure, shortened: as §1
# [58] = target: Gal(b1-4)GlcNAc(b1-2)Man(a1-3)[Gal(b1-4)GlcNAc(b1-2)Man(a1-6)]Man(b1-4)GlcNAc(b1-4)GlcNAc
# Procedure, shortened: as §1
# [59] = target: Gal(b1-4)GlcNAc(b1-3)Gal(b1-3)GlcNAc
# Procedure, shortened: as §1
# [60] = target: Gal(b1-4)GlcNAc(b1-3)Gal(b1-4)Glc
# Procedure, shortened: as §1
binder,measurement,setting,value
"E-Selectin (Mus musculus), Q00690 (protein) MNASRFLSALVFVLLAGESTAWYYNASSELMTYDEASAYCQRDYTHLVAIQNKEEINYLNSNLKHSPSYYWIGIRKVNNVWIWVGTGKPLTEEAQNWAPGEPNNKQRNEDCVEIYIQRTKDSGMWNDERCNKKKLALCYTASCTNASCSGHGECIETINSYTCKCHPGFLGPNCEQAVTCKPQEHPDYGSLNCSHPFGPFSYNSSCSFGCKRGYLPSSMETTVRCTSSGEWSAPAPACHVVECEALTHPAHGIRKCSSNPGSYPWNTTCTFDCVEGYRRVGAQNLQCTSSGIWDNETPSCKAVTCDAIPQPQNGFVSCSHSTAGELAFKSSCNFTCEQSFTLQGPAQVECSAQGQWTPQIPVCKAVQCEALSAPQQGNMKCLPSASGPFQNGSSCEFSCEEGFELKGSRRLQCGPRGEWDSKKPTCSAVKCDDVPRPQNGVMECAHATTGEFTYKSSCAFQCNEGFSLHGSAQLECTSQGKWTQEVPSCQVVQCPSLDVPGKMNMSCSGTAVFGTVCEFTCPDDWTLNGSAVLTCGATGRWSGMPPTCEAPVSPTRPLVVALSAAGTSLLTSSSLLYLLMRYFRKKAKKFVPASSCQSLQSFENYHVPSYNV",glycan array binding signal (z-score),[1],-0.345
same,glycan array binding signal (z-score),[2],-0.142
same,glycan array binding signal (z-score),[3],-0.301
same,glycan array binding signal (z-score),[4],-0.306
same,glycan array binding signal (z-score),[5],-0.259
same,glycan array binding signal (z-score),[6],1.71
same,glycan array binding signal (z-score),[7],0.986
same,glycan array binding signal (z-score),[8],0.554
same,glycan array binding signal (z-score),[9],0.7
same,glycan array binding signal (z-score),[10],0.718
same,glycan array binding signal (z-score),[11],0.598
same,glycan array binding signal (z-score),[12],0.61
same,glycan array binding signal (z-score),[13],0.444
same,glycan array binding signal (z-score),[14],5.1
same,glycan array binding signal (z-score),[15],1.91
same,glycan array binding signal (z-score),[16],2.52
same,glycan array binding signal (z-score),[17],0.563
same,glycan array binding signal (z-score),[18],-0.361
same,glycan array binding signal (z-score),[19],-0.373
same,glycan array binding signal (z-score),[20],-0.326
same,glycan array binding signal (z-score),[21],-0.229
same,glycan array binding signal (z-score),[22],-0.371
same,glycan array binding signal (z-score),[23],-0.33
same,glycan array binding signal (z-score),[24],-0.309
same,glycan array binding signal (z-score),[25],-0.34
same,glycan array binding signal (z-score),[26],-0.302
same,glycan array binding signal (z-score),[27],-0.315
same,glycan array binding signal (z-score),[28],-0.295
same,glycan array binding signal (z-score),[29],-0.318
same,glycan array binding signal (z-score),[30],-0.337
same,glycan array binding signal (z-score),[31],-0.206
same,glycan array binding signal (z-score),[32],-0.269
same,glycan array binding signal (z-score),[33],-0.313
same,glycan array binding signal (z-score),[34],-0.355
same,glycan array binding signal (z-score),[35],-0.328
same,glycan array binding signal (z-score),[36],-0.371
same,glycan array binding signal (z-score),[37],-0.317
same,glycan array binding signal (z-score),[38],-0.367
same,glycan array binding signal (z-score),[39],-0.285
same,glycan array binding signal (z-score),[40],-0.148
same,glycan array binding signal (z-score),[41],-0.309
same,glycan array binding signal (z-score),[42],0.57
same,glycan array binding signal (z-score),[43],-0.253
same,glycan array binding signal (z-score),[44],1.41
same,glycan array binding signal (z-score),[45],1.06
same,glycan array binding signal (z-score),[46],0.445
same,glycan array binding signal (z-score),[47],1.08
same,glycan array binding signal (z-score),[48],-0.355
same,glycan array binding signal (z-score),[49],-0.271
same,glycan array binding signal (z-score),[50],-0.322
same,glycan array binding signal (z-score),[51],-0.337
same,glycan array binding signal (z-score),[52],-0.166
same,glycan array binding signal (z-score),[53],-0.245
same,glycan array binding signal (z-score),[54],-0.317
same,glycan array binding signal (z-score),[55],-0.23
same,glycan array binding signal (z-score),[56],-0.334
same,glycan array binding signal (z-score),[57],-0.318
same,glycan array binding signal (z-score),[58],-0.298
same,glycan array binding signal (z-score),[59],-0.367
same,glycan array binding signal (z-score),[60],-0.299
